± gives the standard error. Variants at the background level are over-represented here.
B1: glmS ribozyme (parent)
chain: AUAAAAGCGCCAGAACUACAGAAAUGUAGUUGACGAGGAGGAGGUUUAUCGAAUUUUCGGCGGAUGCCUCCAAA

Experiments:
Conditions in all cases: with glucosamine-6-phosphate
[1] = variants of: B1; test: self-cleavage kobs at 640 uM GlcN6P; higher = faster cleavage; RNA array
Procedure, shortened: (§1)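 In situ transcription by E. coli RNA polymerase produced barcoded ribozyme variants on sequenced MiSeq chips, and a hybridised Cy3 probe tracked them at 37 °C. Glucosamine-6-phosphate was flowed in at 40 μM to 10 mM in HEPES/KCl/Mg(OAc)2 buffer. kcat and KM were taken from weighted Michaelis–Menten fits of kobs values from exponential decay fits.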

[2] = variants of: B1; test: self-cleavage kobs at 160 uM GlcN6P; higher = faster cleavage; RNA array
Procedure, shortened: as §1

[3] = variants of: B1; test: self-cleavage kobs at 2500 uM GlcN6P; higher = faster cleavage; RNA array
Procedure, shortened: as §1

[4] = variants of: B1; test: self-cleavage kobs at 10000 uM GlcN6P; higher = faster cleavage; RNA array
Procedure, shortened: as §1

Row | Variant | self-cleavage kobs at 640 uM GlcN6P [1] | self-cleavage kobs at 160 uM GlcN6P [2] | self-cleavage kobs at 2500 uM GlcN6P [3] | self-cleavage kobs at 10000 uM GlcN6P [4]
1 | G29U G37C U46C U55A C70U | < 1e-05 s⁻¹ |  |  | 
2 | G13U U56G | 0.000172 ± 2.5e-05 s⁻¹ | 7.12e-05 ± 2e-05 s⁻¹ | 0.000372 ± 6.6e-05 s⁻¹ | 0.000774 ± 9.3e-05 s⁻¹
3 | U30A G62U | < 1e-05 s⁻¹ | < 1e-05 s⁻¹ |  | < 1e-05 s⁻¹
4 | G13C G37A G62A | < 1e-05 s⁻¹ |  | < 1e-05 s⁻¹ | < 1e-05 s⁻¹
5 | G9C A15G G38C G60A | < 1e-05 s⁻¹ |  | < 1e-05 s⁻¹ | 
6 | C8U G9U A53U | < 1e-05 s⁻¹ | < 1e-05 s⁻¹ |  | 
7 | G13C C16A G41A C70G | < 1e-05 s⁻¹ |  |  | 
8 | A14G A36G A42U | < 1e-05 s⁻¹ |  | < 1e-05 s⁻¹ | < 1e-05 s⁻¹
9 | C11G A42C G62U | < 1e-05 s⁻¹ |  | < 1e-05 s⁻¹ | 
10 | C16U A36C G38A | < 1e-05 s⁻¹ |  |  | < 1e-05 s⁻¹
11 | C8A U31A C34U G60C | < 1e-05 s⁻¹ |  |  | 
12 | G29C G38A G40A | < 1e-05 s⁻¹ |  | < 1e-05 s⁻¹ | 
13 | C8U G32A U45A U56C | < 1e-05 s⁻¹ | < 1e-05 s⁻¹ | < 1e-05 s⁻¹ | < 1e-05 s⁻¹
14 | C8A G29U | < 1e-05 s⁻¹ | < 1e-05 s⁻¹ | < 1e-05 s⁻¹ | < 1e-05 s⁻¹
15 | G9U A14U G35A | < 1e-05 s⁻¹ | < 1e-05 s⁻¹ | < 1e-05 s⁻¹ | 
16 | G29C U30C G60U | < 1e-05 s⁻¹ |  |  | 
17 | C10A A14G G35A A52U | < 1e-05 s⁻¹ |  | < 1e-05 s⁻¹ | 
18 | C16U C34A G51C | < 1e-05 s⁻¹ |  | < 1e-05 s⁻¹ | 
19 | G13A U69G | 7.5e-05 ± 1.3e-05 s⁻¹ | 4.26e-05 ± 1.5e-05 s⁻¹ | 6.99e-05 ± 1.7e-05 s⁻¹ | 
20 | C8U C11G U31A | < 1e-05 s⁻¹ |  |  | 

Row | Variant | self-cleavage kobs at 640 uM GlcN6P [1] | self-cleavage kobs at 160 uM GlcN6P [2] | self-cleavage kobs at 2500 uM GlcN6P [3] | self-cleavage kobs at 10000 uM GlcN6P [4]
21 | A12U C34G G41A A53G | < 1e-05 s⁻¹ | < 1e-05 s⁻¹ | < 1e-05 s⁻¹ | 
22 | C11U U30C A53U G59U | < 1e-05 s⁻¹ |  |  | 
23 | A15G G32A C61U | < 1e-05 s⁻¹ |  | < 1e-05 s⁻¹ | 
24 | A15U U46C G59A | < 1e-05 s⁻¹ |  | < 1e-05 s⁻¹ | 
25 | U30C A36C G59U | < 1e-05 s⁻¹ |  |  | 
26 | A15C A42G G43A | < 1e-05 s⁻¹ |  |  | 
27 | U30G A52G | 9.63e-05 ± 1.4e-05 s⁻¹ | 4.03e-05 ± 2e-05 s⁻¹ |  | 
28 | G13A A42C A64G | < 1e-05 s⁻¹ | < 1e-05 s⁻¹ | < 1e-05 s⁻¹ | 
29 | G13A U49A | < 1e-05 s⁻¹ | < 1e-05 s⁻¹ | < 1e-05 s⁻¹ | 
30 | A15U U31C U55G G63U | < 1e-05 s⁻¹ |  |  | 
31 | C10U G29U G41A A52U G60A | < 1e-05 s⁻¹ |  |  | 
32 | G9A A36G G63A C67U U69C | < 1e-05 s⁻¹ |  | < 1e-05 s⁻¹ | 
33 | G9U G41C U47G | < 1e-05 s⁻¹ | < 1e-05 s⁻¹ | < 1e-05 s⁻¹ | 
34 | A15U A33G G51C U55G G60U | < 1e-05 s⁻¹ | < 1e-05 s⁻¹ |  | 
35 | A23C C68U | 0.00205 ± 0.00047 s⁻¹ |  |  | 
36 | C11U U45A U57A C67G C68U C70U | < 1e-05 s⁻¹ |  | < 1e-05 s⁻¹ | 
37 | G32A G38A U45G | < 1e-05 s⁻¹ | < 1e-05 s⁻¹ | < 1e-05 s⁻¹ | 
38 | G32A C50U A53G | < 1e-05 s⁻¹ |  |  | 
39 | C8U C10G G29C U31C G51U | < 1e-05 s⁻¹ |  | < 1e-05 s⁻¹ | 
40 | C10U G35U G59U | < 1e-05 s⁻¹ |  |  | 

Row | Variant | self-cleavage kobs at 640 uM GlcN6P [1] | self-cleavage kobs at 160 uM GlcN6P [2] | self-cleavage kobs at 2500 uM GlcN6P [3] | self-cleavage kobs at 10000 uM GlcN6P [4]
41 | A15C G40A A42C C50G | < 1e-05 s⁻¹ |  | < 1e-05 s⁻¹ | 
42 | A12G C34G U46G C61U C68A | < 1e-05 s⁻¹ |  | < 1e-05 s⁻¹ | 
43 | C10G U57C U69G | < 1e-05 s⁻¹ |  |  | 
44 | G13A G62C A64U U69G | < 1e-05 s⁻¹ |  |  | 
45 | C11U A14G C34U G66U | < 1e-05 s⁻¹ |  | < 1e-05 s⁻¹ | 
46 | G9A G38U U46C G62U A64U | < 1e-05 s⁻¹ |  |  | 
47 | C11G A12U U30A A33C G41A G63C | < 1e-05 s⁻¹ | < 1e-05 s⁻¹ | < 1e-05 s⁻¹ | 
48 | C8A C16U G59C | < 1e-05 s⁻¹ |  | < 1e-05 s⁻¹ | 
49 | A14G U31A G41A C71U | 0.000186 ± 7.9e-05 s⁻¹ |  | 0.000396 ± 0.00011 s⁻¹ | 
50 | C16A G38A G66A | < 1e-05 s⁻¹ |  | < 1e-05 s⁻¹ | 
51 | G13C G59A C61U C67U | < 1e-05 s⁻¹ |  |  | 
52 | U30A G32A A39G | 0.000602 ± 0.00013 s⁻¹ | 6.92e-05 ± 2.4e-05 s⁻¹ |  | 
53 | G29U G32C A36G | < 1e-05 s⁻¹ | < 1e-05 s⁻¹ |  | 
54 | U31C G62U C68G | < 1e-05 s⁻¹ | < 1e-05 s⁻¹ | < 1e-05 s⁻¹ | 
55 | C8G A53G | < 1e-05 s⁻¹ | < 1e-05 s⁻¹ | < 1e-05 s⁻¹ | 
56 | U30C U56G | 8.86e-05 ± 1.3e-05 s⁻¹ |  | 0.000135 ± 1.8e-05 s⁻¹ | 0.000296 ± 3.5e-05 s⁻¹
57 | U31G G38A U57C C58U G66C | < 1e-05 s⁻¹ |  |  | 
58 | G29U U30A G43A G51U | < 1e-05 s⁻¹ |  |  | 
